In publication PMC12820563:
The other results are listed elsewhere or left out. The list includes weakly bound sequences.

The sequences below were run against T1, MBP-FoxP3dN (UniProt Q99JB6) (assay: PD-seq (MBP pull-down with sequencing)). Conditions: 20 mM Tris-HCl pH 7.5, 100 mM NaCl, 1.5 mM MgCl2, 0.4 uM protein, 0.1 uM dsDNA library, 30 min, room temperature, amylose pull-down; high values mean tight binding; double strand, one strand shown.
T1 sequence: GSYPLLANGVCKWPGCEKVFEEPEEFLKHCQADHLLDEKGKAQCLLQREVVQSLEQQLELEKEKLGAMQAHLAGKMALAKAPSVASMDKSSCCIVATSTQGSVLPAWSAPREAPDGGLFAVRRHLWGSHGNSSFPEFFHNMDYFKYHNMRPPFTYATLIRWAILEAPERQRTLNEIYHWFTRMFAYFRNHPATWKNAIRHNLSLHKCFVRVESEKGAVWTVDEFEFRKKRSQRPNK

Sequence | binding signal (RPM ratio (pull-down/input))
GATGATTGTTCTCCCAGCTGATGAATTTAGGTCGTCGAGTAAACAAATTTTCCTAATCTTTCTGTTCAAGCGCCATCTAC | 0.567
GATGATTGTTCTCCCAGCTGATGAATTCTGGGCGTCGAGTAAACAAATTTTCCTAATCTTTCTGTTCAAGCGCCATCTAC | 0.468
GATGATTGTTCTCCCAGCTGATGAATTGAGGAGGTCGAGTAAACAAATTTTCCTAATCTTTCTGTTCAAGCGCCATCTAC | 0.219
GATGATTGTTCTCCCAGCTGATGAATTGAAGTCGTCGAGTAAACAAATTTTCCTAATCTTTCTGTTCAAGCGCCATCTAC | 0.348
GATGATTGTTCTCCCAGCTGATGAATTGAGTGCATCGAGTAAACAAATTTTCCTAATCTTTCTGTTCAAGCGCCATCTAC | 1.65
GATGATTGTTCTCCCAGCTGATGAATTAAGCGCGTCGAGTAAACAAATTTTCCTAATCTTTCTGTTCAAGCGCCATCTAC | 1.4
GATGATTGTTCTCCCAGCTGATGAATTATAGTCGTCGAGTAAACAAATTTTCCTAATCTTTCTGTTCAAGCGCCATCTAC | 0.563
GATGATTGTTCTCCCAGCTGATGAATTTTGGGGGTCGAGTAAACAAATTTTCCTAATCTTTCTGTTCAAGCGCCATCTAC | 0.483
GATGATTGTTCTCCCAGCTGATGAATTGTCTAGCTCGAGTAAACAAATTTTCCTAATCTTTCTGTTCAAGCGCCATCTAC | 0.355
GATGATTGTTCTCCCAGCTGATGAATTATTCAGCTCGAGTAAACAAATTTTCCTAATCTTTCTGTTCAAGCGCCATCTAC | 0.274
GATGATTGTTCTCCCAGCTGATGAATTCATCTGGTCGAGTAAACAAATTTTCCTAATCTTTCTGTTCAAGCGCCATCTAC | 0.33
GATGATTGTTCTCCCAGCTGATGAATTGTGATCATCGAGTAAACAAATTTTCCTAATCTTTCTGTTCAAGCGCCATCTAC | 1.34
GATGATTGTTCTCCCAGCTGATGAATTGAAGGCCTCGAGTAAACAAATTTTCCTAATCTTTCTGTTCAAGCGCCATCTAC | 0.478
GATGATTGTTCTCCCAGCTGATGAATTTGAACCTTCGAGTAAACAAATTTTCCTAATCTTTCTGTTCAAGCGCCATCTAC | 0.302
GATGATTGTTCTCCCAGCTGATGAATTTCCCATATCGAGTAAACAAATTTTCCTAATCTTTCTGTTCAAGCGCCATCTAC | 0.29
GATGATTGTTCTCCCAGCTGATGAATTGAGTTCGTCGAGTAAACAAATTTTCCTAATCTTTCTGTTCAAGCGCCATCTAC | 0.569
GATGATTGTTCTCCCAGCTGATGAATTTCTATCCTCGAGTAAACAAATTTTCCTAATCTTTCTGTTCAAGCGCCATCTAC | 0.336
GATGATTGTTCTCCCAGCTGATGAATTATCAATATCGAGTAAACAAATTTTCCTAATCTTTCTGTTCAAGCGCCATCTAC | 0.732
GATGATTGTTCTCCCAGCTGATGAATTCGTAATCTCGAGTAAACAAATTTTCCTAATCTTTCTGTTCAAGCGCCATCTAC | 0.67
GATGATTGTTCTCCCAGCTGATGAATTCGTTAGTTCGAGTAAACAAATTTTCCTAATCTTTCTGTTCAAGCGCCATCTAC | 2.91

Sequence | binding signal (RPM ratio (pull-down/input))
GATGATTGTTCTCCCAGCTGATGAATTGAGGCGTTCGAGTAAACAAATTTTCCTAATCTTTCTGTTCAAGCGCCATCTAC | 1.51
GATGATTGTTCTCCCAGCTGATGAATTCATAGGATCGAGTAAACAAATTTTCCTAATCTTTCTGTTCAAGCGCCATCTAC | 0.267
GATGATTGTTCTCCCAGCTGATGAATTCACTCTGTCGAGTAAACAAATTTTCCTAATCTTTCTGTTCAAGCGCCATCTAC | 0.278
GATGATTGTTCTCCCAGCTGATGAATTCACCTACTCGAGTAAACAAATTTTCCTAATCTTTCTGTTCAAGCGCCATCTAC | 0.375
GATGATTGTTCTCCCAGCTGATGAATTTTACTAATCGAGTAAACAAATTTTCCTAATCTTTCTGTTCAAGCGCCATCTAC | 0.294
GATGATTGTTCTCCCAGCTGATGAATTAATTTATTCGAGTAAACAAATTTTCCTAATCTTTCTGTTCAAGCGCCATCTAC | 2.61
GATGATTGTTCTCCCAGCTGATGAATTTTGCTATTCGAGTAAACAAATTTTCCTAATCTTTCTGTTCAAGCGCCATCTAC | 5.16
GATGATTGTTCTCCCAGCTGATGAATTTTTTTTGTCGAGTAAACAAATTTTCCTAATCTTTCTGTTCAAGCGCCATCTAC | 0.36
GATGATTGTTCTCCCAGCTGATGAATTGTACCTCTCGAGTAAACAAATTTTCCTAATCTTTCTGTTCAAGCGCCATCTAC | 0.593
GATGATTGTTCTCCCAGCTGATGAATTCCACGCTTCGAGTAAACAAATTTTCCTAATCTTTCTGTTCAAGCGCCATCTAC | 0.518
GATGATTGTTCTCCCAGCTGATGAATTCTCCATATCGAGTAAACAAATTTTCCTAATCTTTCTGTTCAAGCGCCATCTAC | 0.269
GATGATTGTTCTCCCAGCTGATGAATTCGTGGCCTCGAGTAAACAAATTTTCCTAATCTTTCTGTTCAAGCGCCATCTAC | 0.847
GATGATTGTTCTCCCAGCTGATGAATTCGTCCAATCGAGTAAACAAATTTTCCTAATCTTTCTGTTCAAGCGCCATCTAC | 0.252
GATGATTGTTCTCCCAGCTGATGAATTGTACCACTCGAGTAAACAAATTTTCCTAATCTTTCTGTTCAAGCGCCATCTAC | 0.629
GATGATTGTTCTCCCAGCTGATGAATTTCCCGAATCGAGTAAACAAATTTTCCTAATCTTTCTGTTCAAGCGCCATCTAC | 0.191
GATGATTGTTCTCCCAGCTGATGAATTTGGTGAATCGAGTAAACAAATTTTCCTAATCTTTCTGTTCAAGCGCCATCTAC | 0.367
GATGATTGTTCTCCCAGCTGATGAATTAATGACATCGAGTAAACAAATTTTCCTAATCTTTCTGTTCAAGCGCCATCTAC | 0.775
GATGATTGTTCTCCCAGCTGATGAATTTATACAGTCGAGTAAACAAATTTTCCTAATCTTTCTGTTCAAGCGCCATCTAC | 0.558
GATGATTGTTCTCCCAGCTGATGAATTGCAGAGCTCGAGTAAACAAATTTTCCTAATCTTTCTGTTCAAGCGCCATCTAC | 0.414
GATGATTGTTCTCCCAGCTGATGAATTACGAAGGTCGAGTAAACAAATTTTCCTAATCTTTCTGTTCAAGCGCCATCTAC | 0.285
